# Data from the supplement of paper PMC8728848.
# Some of the results follow.
# B1: HHA (Hippeastrum hybrid) (protein)
# chain: MQQDCNLVLYDVDKPIWASNTGGLARDCHLNMQSDGNLVVYAPRNQVIWASNTQGENGNYVCILQKDRNVVIYGTARWATGTNIHGAGIVGVPGSAPQNTTAEMIKLVRKYLITK
# Columns and labels:
# Experiment in all cases: glycan array binding signal (z-score within array); higher = stronger binding
# Settings in all cases: glycan notation: IUPAC condensed, linker removed
# [1] = biological target: Neu5Ac(a2-6)GlcNAc(b1-4)GlcNAc
# Procedure, shortened: (§1)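 From the Consortium for Functional Glycomics database, 3228 arrays were curated, keeping only those whose protein sequence was available. Binding is given as a within-array Z-score averaged across arrays sharing a protein sequence and across linkers. Negative Z-scores can be read as non-binding.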
# [2] = biological target: Neu5Ac(a2-6)GlcNAc(b1-4)GlcNAc(b1-4)GlcNAc
# Procedure, shortened: as §1
# [3] = biological target: Neu5Ac(a2-8)Neu5Ac
# Procedure, shortened: as §1
# [4] = biological target: Neu5Ac(a2-8)Neu5Ac(a2-3)Gal(b1-3)GalNAc(b1-4)[Neu5Ac(a2-3)]Gal(b1-4)Glc
# Procedure, shortened: as §1
# [5] = biological target: Neu5Ac(a2-8)Neu5Ac(a2-3)Gal(b1-3)GalNAc(b1-4)[Neu5Ac(a2-8)Neu5Ac(a2-3)]Gal(b1-4)Glc
# Procedure, shortened: as §1
# [6] = biological target: Neu5Ac(a2-8)Neu5Ac(a2-3)Gal(b1-4)Glc
# Procedure, shortened: as §1
# [7] = biological target: Neu5Ac(a2-8)Neu5Ac(a2-3)Gal(b1-4)GlcNAc
# Procedure, shortened: as §1
# [8] = biological target: Neu5Ac(a2-8)Neu5Ac(a2-3)[Gal(b1-3)GalNAc(b1-4)]Gal(b1-4)Glc
# Procedure, shortened: as §1
# [9] = biological target: Neu5Ac(a2-8)Neu5Ac(a2-3)[GalNAc(b1-4)]Gal(b1-4)Glc
# Procedure, shortened: as §1
# [10] = biological target: Neu5Ac(a2-8)Neu5Ac(a2-8)Neu5Ac
# Procedure, shortened: as §1
# [11] = biological target: Neu5Ac(a2-8)Neu5Ac(a2-8)Neu5Ac(a2-3)Gal(b1-4)Glc
# Procedure, shortened: as §1
# [12] = biological target: Neu5Ac(a2-8)Neu5Ac(a2-8)Neu5Ac(a2-3)[Gal(b1-3)GalNAc(b1-4)]Gal(b1-4)Glc
# Procedure, shortened: as §1
# [13] = biological target: Neu5Ac(a2-8)Neu5Ac(a2-8)Neu5Ac(a2-3)[GalNAc(b1-4)]Gal(b1-4)Glc
# Procedure, shortened: as §1
# [14] = biological target: Neu5Ac(a2-8)Neu5Ac(a2-8)Neu5Ac(a2-8)Neu5Ac(a2-3)[GalNAc(b1-4)]Gal(b1-4)Glc
# Procedure, shortened: as §1
# [15] = biological target: Neu5Ac(a2-8)Neu5Gc(a2-3)Gal(b1-4)GlcNAc
# Procedure, shortened: as §1
# [16] = biological target: Neu5Ac(b1-6)GalNAc
# Procedure, shortened: as §1
# [17] = biological target: Neu5Ac(b2-6)Gal(b1-4)GlcNAc
# Procedure, shortened: as §1
# [18] = biological target: Neu5Ac(b2-6)GalNAc
# Procedure, shortened: as §1
# [19] = biological target: Neu5Ac9Ac(a2-3)Gal(b1-3)GlcNAc
# Procedure, shortened: as §1
# [20] = biological target: Neu5Ac9Ac(a2-3)Gal(b1-4)GlcNAc
# Procedure, shortened: as §1
# [21] = biological target: Neu5Ac9Ac(a2-6)Gal(b1-4)GlcNAc
# Procedure, shortened: as §1
# [22] = biological target: Neu5Gc(a2-3)Gal(b1-3)GlcNAc
# Procedure, shortened: as §1
# [23] = biological target: Neu5Gc(a2-3)Gal(b1-3)[Fuc(a1-4)]GlcNAc
# Procedure, shortened: as §1
# [24] = biological target: Neu5Gc(a2-3)Gal(b1-4)Glc
# Procedure, shortened: as §1
# [25] = biological target: Neu5Gc(a2-3)Gal(b1-4)GlcNAc
# Procedure, shortened: as §1
# [26] = biological target: Neu5Gc(a2-3)Gal(b1-4)GlcNAc(b1-3)Gal(b1-4)GlcNAc(b1-2)Man(a1-3)[Neu5Gc(a2-3)Gal(b1-4)GlcNAc(b1-3)Gal(b1-4)GlcNAc(b1-2)Man(a1-6)]Man(b1-4)GlcNAc(b1-4)GlcNAc
# Procedure, shortened: as §1
# [27] = biological target: Neu5Gc(a2-3)Gal(b1-4)[Fuc(a1-3)]GlcNAc
# Procedure, shortened: as §1
# [28] = biological target: Neu5Gc(a2-6)Gal(b1-4)GlcNAc
# Procedure, shortened: as §1
# [29] = biological target: Neu5Gc(a2-6)GalNAc
# Procedure, shortened: as §1
# [30] = biological target: Neu5Gc(a2-8)Neu5Ac(a2-3)Gal(b1-4)GlcNAc
# Procedure, shortened: as §1
# [31] = biological target: Neu5Gc(a2-8)Neu5Gc(a2-3)Gal(b1-4)GlcNAc
# Procedure, shortened: as §1
# [32] = biological target: Neu5Gc(a2-8)Neu5Gc(a2-3)Gal(b1-4)GlcNAc(b1-3)Gal(b1-4)GlcNAc
# Procedure, shortened: as §1
# [33] = biological target: Neu5Gc(a2-8)Neu5Gc(a2-6)Gal(b1-4)GlcNAc
# Procedure, shortened: as §1
# [34] = biological target: Neu5Gc(b2-6)Gal(b1-4)GlcNAc
# Procedure, shortened: as §1
binder,measurement,setting,value
B1,glycan array binding signal (z-score),[1],-0.22
same,glycan array binding signal (z-score),[2],-0.214
same,glycan array binding signal (z-score),[3],-0.208
same,glycan array binding signal (z-score),[4],-0.211
same,glycan array binding signal (z-score),[5],-0.199
same,glycan array binding signal (z-score),[6],-0.22
same,glycan array binding signal (z-score),[7],-0.215
same,glycan array binding signal (z-score),[8],-0.207
same,glycan array binding signal (z-score),[9],-0.212
same,glycan array binding signal (z-score),[10],-0.218
same,glycan array binding signal (z-score),[11],-0.223
same,glycan array binding signal (z-score),[12],-0.177
same,glycan array binding signal (z-score),[13],-0.198
same,glycan array binding signal (z-score),[14],-0.196
same,glycan array binding signal (z-score),[15],-0.216
same,glycan array binding signal (z-score),[16],-0.257
same,glycan array binding signal (z-score),[17],-0.217
same,glycan array binding signal (z-score),[18],-0.213
same,glycan array binding signal (z-score),[19],-0.213
same,glycan array binding signal (z-score),[20],-0.182
same,glycan array binding signal (z-score),[21],-0.225
same,glycan array binding signal (z-score),[22],-0.213
same,glycan array binding signal (z-score),[23],-0.218
same,glycan array binding signal (z-score),[24],-0.212
same,glycan array binding signal (z-score),[25],-0.145
same,glycan array binding signal (z-score),[26],-0.194
same,glycan array binding signal (z-score),[27],-0.2
same,glycan array binding signal (z-score),[28],-0.211
same,glycan array binding signal (z-score),[29],-0.201
same,glycan array binding signal (z-score),[30],-0.211
same,glycan array binding signal (z-score),[31],-0.213
same,glycan array binding signal (z-score),[32],-0.218
same,glycan array binding signal (z-score),[33],-0.219
same,glycan array binding signal (z-score),[34],-0.206
